# Source: the supplement of paper PMC3334620
# Whole data set: some 33,000 sequences, median “E-score (-0.5 to 0.5)” near -0.053, cut for the highest 2% near 0.37. The list shows a part of the results.
# Target: Hap1 (UniProt P0CE41)
# Assay: PBM E-score (8-mer binding enrichment) (E-score (-0.5 to 0.5)); higher = stronger / more preferred TF binding; most listed sequences are background and not binding sites
# Details: protein concentration: 200 nM; construct: GST-DNA-binding domain
# Description: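 Universal 'all 10-mer' protein binding microarrays (Agilent AMADID 015681) probed with GST-tagged S. cerevisiae TFs (full-length or DBD) made by in vitro transcription/translation (PURExpress), about 100-200 nM. Bound TF was detected with fluorescent anti-GST. Each ungapped 8-mer (which stands for itself and its reverse complement) is scored by the PBM enrichment score (E-score), a modified Wilcoxon-Mann-Whitney statistic from -0.5 to +0.5, computed with the Universal PBM Analysis Suite. Scale: above 0.35 generally sequence-specific binding.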
# Sequence of UniProt P0CE41 (P0CE41 whole entry): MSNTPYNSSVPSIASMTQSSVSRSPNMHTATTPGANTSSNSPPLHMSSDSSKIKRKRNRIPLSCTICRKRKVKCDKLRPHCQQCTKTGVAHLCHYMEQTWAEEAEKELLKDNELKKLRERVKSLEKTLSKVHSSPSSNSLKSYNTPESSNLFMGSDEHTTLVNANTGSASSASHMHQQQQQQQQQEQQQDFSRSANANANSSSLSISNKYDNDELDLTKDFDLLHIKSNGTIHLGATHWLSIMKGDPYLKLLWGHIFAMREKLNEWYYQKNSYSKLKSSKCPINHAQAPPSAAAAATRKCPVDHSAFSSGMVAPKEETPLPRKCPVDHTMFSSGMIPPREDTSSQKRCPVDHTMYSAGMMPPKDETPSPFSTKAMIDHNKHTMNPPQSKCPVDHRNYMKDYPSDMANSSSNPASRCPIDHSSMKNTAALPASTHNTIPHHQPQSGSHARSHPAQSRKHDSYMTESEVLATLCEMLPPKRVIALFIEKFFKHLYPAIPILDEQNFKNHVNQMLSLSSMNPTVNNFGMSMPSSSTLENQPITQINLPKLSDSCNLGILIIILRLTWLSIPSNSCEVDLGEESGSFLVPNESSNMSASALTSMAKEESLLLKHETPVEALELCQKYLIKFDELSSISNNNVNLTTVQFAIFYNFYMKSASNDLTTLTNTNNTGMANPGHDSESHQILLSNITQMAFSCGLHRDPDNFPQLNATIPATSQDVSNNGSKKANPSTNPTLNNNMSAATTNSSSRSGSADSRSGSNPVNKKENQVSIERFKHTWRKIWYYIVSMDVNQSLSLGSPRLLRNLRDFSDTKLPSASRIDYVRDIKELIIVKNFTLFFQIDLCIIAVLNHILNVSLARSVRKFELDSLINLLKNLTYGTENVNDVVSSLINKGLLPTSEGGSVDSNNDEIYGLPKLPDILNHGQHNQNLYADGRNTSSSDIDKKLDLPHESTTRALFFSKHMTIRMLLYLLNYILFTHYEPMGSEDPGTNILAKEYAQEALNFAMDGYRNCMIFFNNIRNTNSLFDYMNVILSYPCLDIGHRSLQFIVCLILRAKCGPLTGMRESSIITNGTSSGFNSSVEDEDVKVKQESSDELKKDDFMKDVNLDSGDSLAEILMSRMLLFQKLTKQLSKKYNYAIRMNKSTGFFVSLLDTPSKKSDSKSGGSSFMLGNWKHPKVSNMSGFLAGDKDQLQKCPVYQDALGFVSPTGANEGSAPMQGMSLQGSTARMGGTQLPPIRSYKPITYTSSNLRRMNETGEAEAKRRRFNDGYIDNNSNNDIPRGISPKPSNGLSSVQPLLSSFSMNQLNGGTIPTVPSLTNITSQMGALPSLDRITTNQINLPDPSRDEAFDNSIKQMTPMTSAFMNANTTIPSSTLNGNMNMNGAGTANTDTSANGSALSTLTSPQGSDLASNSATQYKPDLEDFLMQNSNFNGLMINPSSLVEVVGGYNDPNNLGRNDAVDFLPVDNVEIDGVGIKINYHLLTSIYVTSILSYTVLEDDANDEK
row,Sequence,PBM E-score
1,CGCTATGC,0.0649
2,GATATATA,0.198
3,TGCTCTAA,-0.0971
4,AGGCGCAG,-0.276
5,GGCTTCTA,0.0205
6,ACACCACC,-0.0508
7,GCCATTCC,0.151
8,ATTCTGTG,0.0384
9,GACCGCTA,0.269
10,TAACATAA,-0.0229
11,CCTTCATC,0.0228
12,GGTATAAA,0.2
13,GAATGCTA,-0.11
14,ATACGGTC,0.0985
15,ATTGCGCA,0.0389
16,ATTGGTTC,-0.0235
17,GGACTCGA,-0.0414
18,CGAAGCTC,0.0709
19,TACCACGA,-0.173
20,CAAAACCG,0.155
21,GATCGAGA,-0.0583
22,ATGCAGCC,-0.175
23,AGACAGAG,-0.243
24,CGGAATGA,0.263
25,AAGCGAGG,0.0558

row,Sequence,PBM E-score
1,CGACACAC,-0.0393
2,CAAGCGTG,-0.122
3,TCTATACA,-0.307
4,GACTAAAC,-0.11
5,CGACTGAA,0.0523
6,CTGTACTC,-0.0231
7,ACCCCCCA,-0.21
8,CGCTCCGA,0.324
9,ACGCTTCC,0.0365
10,ACAATGGA,0.0233
11,GAAAGATA,-0.0938
12,GGTGGCCA,-0.136
13,AATCCGAC,0.363
14,CGTACTAA,0.033
15,AGTGGGCG,0.0181
16,GGTACCTA,-0.1
17,CGATTAGA,0.0369
18,CCCACAGA,-0.333
19,GTGGTGGA,-0.0266
20,ATCAGATA,-0.173
21,CGGATAGA,0.294
22,AGACTAGG,-0.296
23,ATCTTAGG,-0.298
24,AACCTCGT,0.0223
25,AGCTTTAC,-0.128

row,Sequence,PBM E-score
1,AGGAAGAA,-0.149
2,GAAAGAAC,0.0114
3,ACGGGGAC,0.159
4,CGTTGACA,-0.187
5,GCCCAGCA,-0.0648
6,AGTGAGAG,-0.175
7,CAGAGACG,-0.0221
8,AGATAACC,0.072
9,ACTACCAA,-0.202
10,ACCGCGGA,0.361
11,ATCTTCCA,-0.147
12,GCGACTAA,0.04
13,CGGTTGTC,0.107
14,ATATCTAC,0.0684
15,GCCTGTAA,-0.00046
16,CCCAGGCC,-0.143
17,AGCTCGAC,-0.227
18,ATTACCTA,0.0232
19,AGTTATAG,-0.184
20,ACGTTTGA,-0.0528
21,CTTGGCAC,-0.179
22,GCCAGAAC,-0.186
23,CGGGTAGC,0.11
24,ATATAGCC,0.0706
25,CTTGGCCA,-0.227

row,Sequence,PBM E-score
1,ACGGATAC,0.3
2,CTTTGACA,-0.247
3,CACCAGCC,-0.0164
4,CTTCGCAA,-0.0531
5,GGGCCATA,0.194
6,TATAGCGA,-0.129
7,AAACATGA,-0.353
8,TCTCTTAA,-0.0735
9,ACCGGTAG,0.228
10,GATGGGTA,-0.088
11,AAAGTGGC,0.00164
12,GCTCATAA,0.0768
13,ATCAGGTC,-0.132
14,AATAATCG,-0.041
15,AGTGTCCC,0.117
16,CCGTCCCA,0.153
17,ATGATAAT,-0.033
18,ATGCTCGA,-0.153
19,GGCCTGGA,-0.2
20,CACAAGTC,-0.229
21,GCCTTTAA,0.0534
22,AATTCGGC,0.131
23,CGTCATAC,-0.023
24,GAGAGAGA,-0.0161
25,GCTTCGAA,-0.121

row,Sequence,PBM E-score
1,ATATGTGG,-0.178
2,CTGCGCGA,-0.0115
3,AGACAACT,-0.0428
4,AACGGATC,0.273
5,CGATTAGC,0.0149
6,ATCATTCA,-0.104
7,CGCTAGAG,0.0161
8,CTTCAGGC,-0.238
9,GAGGTGTA,-0.124
10,CAAGGGTG,-0.0184
11,ACCCCTTA,0.0742
12,GGAACGAA,0.084
13,GTGTAAGA,-0.204
14,CTAGAGAG,-0.286
15,CTACCGTC,-0.0171
16,CGGGTTAC,0.221
17,ACTTTGCT,-0.0503
18,GCTGCAGC,0.103
19,TAAGGTAA,-0.0314
20,GCGGATTA,0.189
21,GGGAGACA,0.0397
22,AATGTGCC,0.00838
23,GCGTTACC,0.203
24,CCGCGAGC,0.173
25,GTGTCGCA,-0.131

row,Sequence,PBM E-score
1,CCCGCGTC,0.194
2,GAGTAGCC,-0.102
3,TCCTTTAA,0.123
4,CGAGTGAC,0.0153
5,ATATAATG,-0.169
6,ACTGTGGG,-0.362
7,AGATTGCA,-0.141
8,CGTAGATA,0.0963
9,CCGGGCAA,0.322
10,GCGACACA,-0.0302
11,CACCAGTC,-0.184
12,ATCGTAGG,-0.254
13,AGTTCCCC,0.196
14,AAGTAAGG,0.0149
15,AAAGCATC,-0.0846
16,TACTCGAA,-0.263
17,GTGATCAC,0.0608
18,ATGGGGAA,0.0435
19,AATCGACC,0.192
20,AAGGGGGC,-0.17
21,AGTGAAGC,-0.0458
22,GGTAAACA,0.0313
23,AAATCTGG,0.068
24,AGCTGAAC,-0.176
25,AACGGTAT,0.0602

row,Sequence,PBM E-score
1,CGCGGATC,0.172
2,CGCACAGC,0.119
3,GCCCCTCC,-0.0479
4,AATGGGTA,-0.15
5,CCTGCATA,-0.0504
6,CCCAGTAC,-0.213
7,AGGACTTA,0.18
8,CGTTAAAA,0.146
9,ACTATCCC,-0.0617
10,CGGGTAAG,0.0144
11,ACCCCCGG,0.368
12,GGAACACA,-0.109
13,AAGAGCGC,-0.179
14,CATCCGAA,0.368
15,CGGCCGTC,0.277
16,AGGCGGCG,0.11
17,CACTGCCC,-0.0237
18,AAAGCGGA,0.275
19,CTTGGAGC,-0.121
20,GCACCTCC,0.0324
21,CATGGAGC,-0.183
22,GCCGTATA,0.138
